# Data reported in the supplement of paper PMC8728848.
# This is one part of the list.
# B1: CLEC5A (Homo sapiens), Q9NY25 (protein)
# chain: MNWHMIISGLIVVVLKVVGMTLFLLYFPQIFNKSNDGFTTTRSYGTVSQIFGSSSPSPNGFITTRSYGTVCPKDWEFYQARCFFLSTSESSWNESRDFCKGKGSTLAIVNTPEKLKFLQDITDAEKYFIGLIYHREEKRWRWINNSVFNGNVTNQNQNFNCATIGLTKTFDAASCDISYRRICEKNAK
# Assays:
# Experiment in all cases: glycan array binding signal (z-score within array); higher = stronger binding
# Settings in all cases: glycan notation: IUPAC condensed, linker removed
# [1] = target: Gal(b1-3)[GlcNAc(b1-6)]GalNAc
# Procedure, shortened: (§1)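 The Consortium for Functional Glycomics database supplied 3228 glycan arrays, of which those lacking an available protein sequence were dropped. The binding signal, a within-array Z-score, was averaged across arrays of the same protein sequence and across linkers. Negative scores can be read as non-binding.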
# [2] = target: Gal(b1-3)[Neu5Ac(a2-6)]GalNAc
# Procedure, shortened: as §1
# [3] = target: Gal(b1-3)[Neu5Ac(a2-6)]GalNAc(b1-4)Gal(b1-4)Glc
# Procedure, shortened: as §1
# [4] = target: Gal(b1-3)[Neu5Ac(a2-6)]GlcNAc(b1-3)Gal(b1-4)Glc
# Procedure, shortened: as §1
# [5] = target: Gal(b1-3)[Neu5Ac(a2-6)]GlcNAc(b1-4)Gal(b1-4)Glc
# Procedure, shortened: as §1
# [6] = target: Gal(b1-3)[Neu5Ac(a2-6)]GlcNAc(b1-6)Gal(b1-4)Glc
# Procedure, shortened: as §1
# [7] = target: Gal(b1-3)[Neu5Ac(b2-6)]GalNAc
# Procedure, shortened: as §1
# Gal(b1-4)Gal = target: Gal(b1-4)Gal
# Procedure, shortened: as §1
# [8] = target: Gal(b1-4)GalNAc(a1-3)[Fuc(a1-2)]Gal(b1-4)GlcNAc
# Procedure, shortened: as §1
# [9] = target: Gal(b1-4)GalNAc(b1-3)[Fuc(a1-2)]Gal(b1-4)GlcNAc
# Procedure, shortened: as §1
# Gal(b1-4)Glc = target: Gal(b1-4)Glc
# Procedure, shortened: as §1
# Gal(b1-4)Glc6S = target: Gal(b1-4)Glc6S
# Procedure, shortened: as §1
# Gal(b1-4)GlcNAc = target: Gal(b1-4)GlcNAc
# Procedure, shortened: as §1
# [10] = target: Gal(b1-4)GlcNAc(a1-6)Gal(b1-4)GlcNAc
# Procedure, shortened: as §1
# Gal(b1-4)GlcNAc(b1-2)Man = target: Gal(b1-4)GlcNAc(b1-2)Man
# Procedure, shortened: as §1
# [11] = target: Gal(b1-4)GlcNAc(b1-2)Man(a1-3)Man(b1-4)GlcNAc(b1-4)GlcNAc
# Procedure, shortened: as §1
# [12] = target: Gal(b1-4)GlcNAc(b1-2)Man(a1-3)[Gal(b1-4)GlcNAc(b1-2)Man(a1-6)]Man(b1-4)GlcNAc(b1-4)GlcNAc
# Procedure, shortened: as §1
# [13] = target: Gal(b1-4)GlcNAc(b1-2)Man(a1-3)[Gal(b1-4)GlcNAc(b1-2)Man(a1-6)]Man(b1-4)GlcNAc(b1-4)[Fuc(a1-6)]GlcNAc
# Procedure, shortened: as §1
# [14] = target: Gal(b1-4)GlcNAc(b1-2)Man(a1-3)[Gal(b1-4)GlcNAc(b1-2)Man(a1-6)][Gal(b1-4)GlcNAc(b1-4)]Man(b1-4)GlcNAc(b1-4)[Fuc(a1-6)]GlcNAc
# Procedure, shortened: as §1
# [15] = target: Gal(b1-4)GlcNAc(b1-2)Man(a1-3)[Gal(b1-4)GlcNAc(b1-2)Man(a1-6)][GlcNAc(b1-4)]Man(b1-4)GlcNAc(b1-4)[Fuc(a1-6)]GlcNAc
# Procedure, shortened: as §1
# [16] = target: Gal(b1-4)GlcNAc(b1-2)Man(a1-3)[GlcNAc(b1-2)Man(a1-6)]Man(b1-4)GlcNAc(b1-4)GlcNAc
# Procedure, shortened: as §1
# [17] = target: Gal(b1-4)GlcNAc(b1-2)Man(a1-3)[GlcNAc(b1-4)][Gal(b1-4)GlcNAc(b1-2)Man(a1-6)]Man(b1-4)GlcNAc(b1-4)GlcNAc
# Procedure, shortened: as §1
# [18] = target: Gal(b1-4)GlcNAc(b1-2)Man(a1-3)[Man(a1-6)]Man(b1-4)GlcNAc(b1-4)GlcNAc
# Procedure, shortened: as §1
# [19] = target: Gal(b1-4)GlcNAc(b1-2)Man(a1-6)Man(b1-4)GlcNAc(b1-4)GlcNAc
# Procedure, shortened: as §1
# [20] = target: Gal(b1-4)GlcNAc(b1-2)Man(a1-6)[GlcNAc(b1-2)Man(a1-3)]Man(b1-4)GlcNAc(b1-4)GlcNAc
# Procedure, shortened: as §1
# [21] = target: Gal(b1-4)GlcNAc(b1-2)Man(a1-6)[GlcNAc(b1-2)Man(a1-3)]Man(b1-4)GlcNAc(b1-4)[Fuc(a1-6)]GlcNAc
# Procedure, shortened: as §1
# [22] = target: Gal(b1-4)GlcNAc(b1-2)Man(a1-6)[Man(a1-3)]Man(b1-4)GlcNAc(b1-4)GlcNAc
# Procedure, shortened: as §1
# [23] = target: Gal(b1-4)GlcNAc(b1-2)Man(a1-6)[Man(a1-3)]Man(b1-4)GlcNAc(b1-4)[Fuc(a1-6)]GlcNAc
# Procedure, shortened: as §1
# [24] = target: Gal(b1-4)GlcNAc(b1-2)[Gal(b1-4)GlcNAc(b1-4)]Man(a1-3)[Fuc(a1-3)[Gal(b1-4)]GlcNAc(b1-2)Man(a1-6)]Man(b1-4)GlcNAc(b1-4)GlcNAc
# Procedure, shortened: as §1
# [25] = target: Gal(b1-4)GlcNAc(b1-2)[Gal(b1-4)GlcNAc(b1-4)]Man(a1-3)[Gal(b1-4)GlcNAc(b1-2)Man(a1-6)]Man(b1-4)GlcNAc(b1-4)GlcNAc
# Procedure, shortened: as §1
# [26] = target: Gal(b1-4)GlcNAc(b1-2)[Gal(b1-4)GlcNAc(b1-4)]Man(a1-3)[Gal(b1-4)GlcNAc(b1-2)[Gal(b1-4)GlcNAc(b1-6)]Man(a1-6)]Man(b1-4)GlcNAc(b1-4)GlcNAc
# Procedure, shortened: as §1
# [27] = target: Gal(b1-4)GlcNAc(b1-2)[Gal(b1-4)GlcNAc(b1-4)]Man(a1-3)[GlcNAc(b1-4)][Gal(b1-4)GlcNAc(b1-2)Man(a1-6)]Man(b1-4)GlcNAc(b1-4)GlcNAc
# Procedure, shortened: as §1
# [28] = target: Gal(b1-4)GlcNAc(b1-2)[Gal(b1-4)GlcNAc(b1-4)]Man(a1-3)[GlcNAc(b1-4)][Gal(b1-4)GlcNAc(b1-2)[Gal(b1-4)GlcNAc(b1-6)]Man(a1-6)]Man(b1-4)GlcNAc(b1-4)GlcNAc
# Procedure, shortened: as §1
# [29] = target: Gal(b1-4)GlcNAc(b1-2)[Gal(b1-4)GlcNAc(b1-6)]Man(a1-6)[Gal(b1-4)GlcNAc(b1-2)Man(a1-3)]Man(b1-4)GlcNAc(b1-4)GlcNAc
# Procedure, shortened: as §1
# [30] = target: Gal(b1-4)GlcNAc(b1-2)[Gal(b1-4)GlcNAc(b1-6)]Man(a1-6)[Gal(b1-4)GlcNAc(b1-2)Man(a1-3)]Man(b1-4)GlcNAc(b1-4)[Fuc(a1-6)]GlcNAc
# Procedure, shortened: as §1
# [31] = target: Gal(b1-4)GlcNAc(b1-2)[Gal(b1-4)GlcNAc(b1-6)]Man(a1-6)[GlcNAc(b1-4)][Gal(b1-4)GlcNAc(b1-2)Man(a1-3)]Man(b1-4)GlcNAc(b1-4)GlcNAc
# Procedure, shortened: as §1
# [32] = target: Gal(b1-4)GlcNAc(b1-2)[Gal(b1-4)GlcNAc(b1-6)]Man(a1-6)[GlcNAc(b1-4)][Gal(b1-4)GlcNAc(b1-2)[Gal(b1-4)GlcNAc(b1-4)]Man(a1-3)]Man(b1-4)GlcNAc(b1-4)[Fuc(a1-6)]GlcNAc
# Procedure, shortened: as §1
# Gal(b1-4)GlcNAc(b1-3)Fuc = target: Gal(b1-4)GlcNAc(b1-3)Fuc
# Procedure, shortened: as §1
# [33] = target: Gal(b1-4)GlcNAc(b1-3)Gal(b1-3)GalNAc
# Procedure, shortened: as §1
# [34] = target: Gal(b1-4)GlcNAc(b1-3)Gal(b1-3)GlcNAc
# Procedure, shortened: as §1
# [35] = target: Gal(b1-4)GlcNAc(b1-3)Gal(b1-4)Glc
# Procedure, shortened: as §1
# [36] = target: Gal(b1-4)GlcNAc(b1-3)Gal(b1-4)GlcNAc
# Procedure, shortened: as §1
# [37] = target: Gal(b1-4)GlcNAc(b1-3)Gal(b1-4)GlcNAc(b1-2)Man(a1-3)[Gal(b1-4)GlcNAc(b1-3)Gal(b1-4)GlcNAc(b1-2)Man(a1-6)]Man(b1-4)GlcNAc(b1-4)GlcNAc
# Procedure, shortened: as §1
# [38] = target: Gal(b1-4)GlcNAc(b1-3)Gal(b1-4)GlcNAc(b1-2)Man(a1-3)[Gal(b1-4)GlcNAc(b1-3)Gal(b1-4)GlcNAc(b1-2)Man(a1-6)]Man(b1-4)GlcNAc(b1-4)[Fuc(a1-6)]GlcNAc
# Procedure, shortened: as §1
# [39] = target: Gal(b1-4)GlcNAc(b1-3)Gal(b1-4)GlcNAc(b1-2)[Gal(b1-4)GlcNAc(b1-3)Gal(b1-4)GlcNAc(b1-6)]Man(a1-6)[Gal(b1-4)GlcNAc(b1-3)Gal(b1-4)GlcNAc(b1-2)Man(a1-3)]Man(b1-4)GlcNAc(b1-4)GlcNAc
# Procedure, shortened: as §1
binder,measurement,setting,value
B1,glycan array binding signal (z-score),[1],-0.176
same,glycan array binding signal (z-score),[2],-0.023
same,glycan array binding signal (z-score),[3],-0.32
same,glycan array binding signal (z-score),[4],-0.32
same,glycan array binding signal (z-score),[5],-0.102
same,glycan array binding signal (z-score),[6],-0.42
same,glycan array binding signal (z-score),[7],-0.021
same,glycan array binding signal (z-score),Gal(b1-4)Gal,-0.219
same,glycan array binding signal (z-score),[8],-0.154
same,glycan array binding signal (z-score),[9],0.157
same,glycan array binding signal (z-score),Gal(b1-4)Glc,-0.243
same,glycan array binding signal (z-score),Gal(b1-4)Glc6S,-0.201
same,glycan array binding signal (z-score),Gal(b1-4)GlcNAc,-0.227
same,glycan array binding signal (z-score),[10],0.005
same,glycan array binding signal (z-score),Gal(b1-4)GlcNAc(b1-2)Man,-0.063
same,glycan array binding signal (z-score),[11],0.071
same,glycan array binding signal (z-score),[12],0.564
same,glycan array binding signal (z-score),[13],-0.287
same,glycan array binding signal (z-score),[14],-0.098
same,glycan array binding signal (z-score),[15],-0.253
same,glycan array binding signal (z-score),[16],-0.167
same,glycan array binding signal (z-score),[17],0.043
same,glycan array binding signal (z-score),[18],-0.055
same,glycan array binding signal (z-score),[19],-0.125
same,glycan array binding signal (z-score),[20],-0.213
same,glycan array binding signal (z-score),[21],-0.031
same,glycan array binding signal (z-score),[22],0.189
same,glycan array binding signal (z-score),[23],4.98
same,glycan array binding signal (z-score),[24],-0.32
same,glycan array binding signal (z-score),[25],-0.208
same,glycan array binding signal (z-score),[26],0.095
same,glycan array binding signal (z-score),[27],-0.168
same,glycan array binding signal (z-score),[28],-0.143
same,glycan array binding signal (z-score),[29],-0.159
same,glycan array binding signal (z-score),[30],-0.001
same,glycan array binding signal (z-score),[31],-0.162
same,glycan array binding signal (z-score),[32],-0.167
same,glycan array binding signal (z-score),Gal(b1-4)GlcNAc(b1-3)Fuc,-0.32
same,glycan array binding signal (z-score),[33],0.164
same,glycan array binding signal (z-score),[34],0.469
same,glycan array binding signal (z-score),[35],-0.341
same,glycan array binding signal (z-score),[36],-0.145
same,glycan array binding signal (z-score),[37],0.323
same,glycan array binding signal (z-score),[38],0.05
same,glycan array binding signal (z-score),[39],0.533
